Each structure is given as a SMILES string. The campaign covered roughly 310,000 compounds. About 14,000 (4.5%) showed an effect of 50% or more. The effect is printed as a negative number. This is one part of the list.

Results on 89 molecules are retold here after PMC4336329 (PLoS ONE, 2015).
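Note: peak tail current of the secondary pulse compared with the same well before compound.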

In this assay the target is human ether-à-go-go-related gene (hERG) potassium channel (human, UniProt Q12809). Put plainly: primary screen, population patch clamp on CHO cells stably expressing hERG.
human ether-à-go-go-related gene (hERG) potassium channel, sequence (Q12809 whole entry, looked up): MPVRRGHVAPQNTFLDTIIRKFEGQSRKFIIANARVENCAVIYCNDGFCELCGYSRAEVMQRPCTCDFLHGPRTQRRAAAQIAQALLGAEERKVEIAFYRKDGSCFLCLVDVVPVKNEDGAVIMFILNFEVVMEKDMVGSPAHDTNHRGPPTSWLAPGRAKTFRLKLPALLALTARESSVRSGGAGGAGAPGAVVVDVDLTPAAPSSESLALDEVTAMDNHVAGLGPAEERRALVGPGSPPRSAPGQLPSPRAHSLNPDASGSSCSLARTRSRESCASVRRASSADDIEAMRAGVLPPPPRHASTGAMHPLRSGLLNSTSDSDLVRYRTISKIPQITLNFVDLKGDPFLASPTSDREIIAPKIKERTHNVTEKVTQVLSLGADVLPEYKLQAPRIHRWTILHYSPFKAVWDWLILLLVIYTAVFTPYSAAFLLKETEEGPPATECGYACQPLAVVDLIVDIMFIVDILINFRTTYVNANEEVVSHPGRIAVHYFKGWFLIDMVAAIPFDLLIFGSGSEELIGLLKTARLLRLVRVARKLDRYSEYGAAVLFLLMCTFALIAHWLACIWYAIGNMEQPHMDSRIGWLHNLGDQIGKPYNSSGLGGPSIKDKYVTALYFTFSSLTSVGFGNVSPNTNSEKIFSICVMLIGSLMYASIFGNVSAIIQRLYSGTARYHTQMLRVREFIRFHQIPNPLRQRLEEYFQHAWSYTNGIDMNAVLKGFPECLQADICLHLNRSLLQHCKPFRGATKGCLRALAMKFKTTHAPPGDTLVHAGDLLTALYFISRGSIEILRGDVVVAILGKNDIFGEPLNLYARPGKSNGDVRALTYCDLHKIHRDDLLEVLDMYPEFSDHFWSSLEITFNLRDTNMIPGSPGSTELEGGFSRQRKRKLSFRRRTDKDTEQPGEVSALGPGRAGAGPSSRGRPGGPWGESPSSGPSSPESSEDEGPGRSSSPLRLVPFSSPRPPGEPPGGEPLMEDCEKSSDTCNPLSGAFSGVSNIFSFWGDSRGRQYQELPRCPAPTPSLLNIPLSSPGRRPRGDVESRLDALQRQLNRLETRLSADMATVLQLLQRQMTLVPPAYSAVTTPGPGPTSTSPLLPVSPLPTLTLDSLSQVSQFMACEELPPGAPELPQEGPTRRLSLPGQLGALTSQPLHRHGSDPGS
Regarding `Cc1ccc2c(c1)N(CC(=O)N1CCCCC1C)C(=O)CO2` (centres unmarked), the “hERG current change (%, negative = inhibition) at 10uM” value is recorded as 18.3%. In the case of `COc1ccc(C2C(C#N)=C(N)Oc3n[nH]c(C)c32)cc1CSc1ccccn1` (centres unmarked), the “hERG current change (%, negative = inhibition) at 10uM” value was -23.8%.

For the molecule `COc1ccc(/C=C2/SC(=S)NC2=O)cc1OCc1ccccc1`, the “hERG current change (%, negative = inhibition) at 10uM” value stood at 7.64%. As to `CCCCN(C)CCNC(=O)C1CCN(S(=O)(=O)c2cccc3nsnc23)CC1`, the “hERG current change (%, negative = inhibition) at 10uM” value was -15.3%. To `CCOC(=O)C1=C(N)OC2=C(C(=O)CCC2)C12C(=O)N(C)c1ccccc12` (centres unmarked) belongs 8.11%; to `CCOC(=O)C1CCN(C(=O)c2cc3cc(Br)ccc3oc2=O)CC1`, -11%. For `Cc1cc(C(=O)N/N=C/c2cc(Cl)cc([N+](=O)[O-])c2O)n[nH]1`, the “hERG current change (%, negative = inhibition) at 10uM” value is reported as -13.7%. To `Cc1nc2ccccc2n1C1CCN(CC(=O)Nc2ccccc2Br)CC1` belongs -25%; to `C/C=C/c1cc(CN2CCN(c3ccccc3)CC2)c(O)c(OC)c1`, -32%; to `CCOC(=O)C1=C(O)/C(=C/c2ccc(OCC(=O)O)c(OC)c2)SC1=Nc1ccc(OC)cc1`, -41.5%. `O=C(NC1CCCC1)C1CC(O)CN1C(=O)Nc1ccccc1` (centres unmarked): the “hERG current change (%, negative = inhibition) at 10uM” value stood at 5.02%.

Take `CCOC(=O)c1cc2c(=O)n3ccccc3nc2n(CCOC)c1=NC(=O)c1c(-c2c(F)cccc2Cl)noc1C`: the “hERG current change (%, negative = inhibition) at 10uM” value is on record as 2%.

For the molecule `CCOC(=O)C1=C(C)NC(=O)NC1c1cccc(O)c1` (centres unmarked), the “hERG current change (%, negative = inhibition) at 10uM” value stood at 23.5%. With `CN(C(=O)COC(=O)c1ccc2[nH]c3c(c2c1)CCCC3)C1CCS(=O)(=O)C1` (centres unmarked), the “hERG current change (%, negative = inhibition) at 10uM” value is recorded as -11.1%. With `Cn1c2ccccc2c2nnc(SCC(=O)NC3CCCC3)nc21`, the “hERG current change (%, negative = inhibition) at 10uM” value was 2.81%. To `O=C(c1noc2c1CCCC2)N1CCCC(N2CCN(c3ccccc3F)CC2)C1` (centres unmarked) belongs -28%; to `O=C(Nc1ccc(OC(F)(F)F)cc1)N1CCN(c2ccnc3cc(Cl)ccc23)CC1`, -72.1%; to `CC(C)(C)[C@H]1C=C(C(=O)N2CCN(Cc3ccccc3)CC2)O[C@@H](OCCCCO)C1`, -22.2%.

In the case of `CCN(CC)CC(O)CN(c1ccccc1)S(=O)(=O)c1ccc2ccccc2c1.Cl` (centres unmarked), the “hERG current change (%, negative = inhibition) at 10uM” value is reported as -80.2%. For `COc1ccc(CCNC(=O)C(=O)NCC2OCCN2S(=O)(=O)c2cccs2)cc1OC` (centres unmarked) the value was -16.5%. For `O=C1NN(c2ccccc2)C(=O)C2C1C1C=CC2C12CC2` (centres unmarked), the “hERG current change (%, negative = inhibition) at 10uM” value is on record as -1.38%.

In the case of `CCC(=O)Nc1ccc(S(=O)(=O)NCc2ccco2)cc1`, the “hERG current change (%, negative = inhibition) at 10uM” value is given as -3.34%. To `O=c1c2cc(Br)ccc2[nH]c(=S)n1Cc1cccnc1` belongs 6.8%; to `COc1ccc(CN2CCN(C(=O)c3ccc4nc(N5CCOCC5)sc4c3)CC2)c(OC)c1OC`, -5.71%; to `COc1ccc(Cc2nc(-c3cccc(C)c3)no2)cc1`, -9.01%. To `CCC(Sc1nc2sc(C(=O)OC)c(C)c2c(=O)n1N)C(=O)NCC1CCCO1` (centres unmarked) belongs -28.4%. For `COC(=O)COc1ccc(S(=O)(=O)Nc2ccccc2C(=O)OC)cc1` the value was 1.81%; for `CC(C)(C)c1ccc(C(CC(=O)O)NC(=O)Cc2ccc(Cl)cc2)cc1` (centres unmarked), 20.6%; for `O=C(COC(=O)COc1ccccc1F)NCCc1ccc(F)cc1`, 8.05%.

On to `O=C(COC(=O)C1=COCCO1)Nc1ccccc1`, for which the “hERG current change (%, negative = inhibition) at 10uM” value came to 26.1%.

Take `O=C(COc1ccccc1[N+](=O)[O-])Nc1cccc(Cl)c1N1CCOCC1`: the “hERG current change (%, negative = inhibition) at 10uM” value is given as -30%. To `CCOCCCNc1ccc(-c2ccccc2)nn1` belongs -1.64%; to `CCCCOc1ccc(-c2cc(C(=O)NNC(=S)NCC)c3ccccc3n2)cc1`, 7.75%. To `N#CCO/N=C(\c1ccccc1)c1ccncc1` belongs 18.1%; to `O=C(O)/C(=C\c1ccc(Br)cc1)c1ccc(S(=O)(=O)N2CCCCC2)s1`, 9.39%; to `CCOc1ccc(C(=O)NCc2ccncc2)cc1`, 15.6%. Consider `Cc1ccc(S(=O)(=O)C2(C(=O)Nc3ccc(F)cc3)CC2)cc1`, for which the “hERG current change (%, negative = inhibition) at 10uM” value is -14.8%. For `C/C(N)=C(/C#N)C(=O)COC(=O)c1ccccc1C(=O)c1ccc(C)cc1` the value was -12%.

Turning to `COc1cccc(OC)c1OCC(O)CN1CCN(c2ccccc2)CC1.Cl` (centres unmarked), the “hERG current change (%, negative = inhibition) at 10uM” value is reported as -33.3%.

In the case of `CCC(NC(=O)c1cc(COc2cncc(Cl)c2)on1)c1ccncc1` (centres unmarked), the “hERG current change (%, negative = inhibition) at 10uM” value amounted to 8.75%. Take `CCCC(=O)Nc1cccc(-c2nc3ccccc3o2)c1`: the “hERG current change (%, negative = inhibition) at 10uM” value was 2.05%. To `CCC(=O)c1cn(Cc2ccccc2)c2ccccc12` belongs -7.05%. For `C=CCn1c(NC(=O)c2ccco2)nc2ccccc21` the value was 5.56%. `CC(=O)N1N=C(c2ccc(C)o2)CC1c1cccc(F)c1` (centres unmarked): the “hERG current change (%, negative = inhibition) at 10uM” value worked out at 18.1%. `Cc1cnc(NC(=O)C(C)N2CCN(C)CC2)s1.O=C(O)C(=O)O` (centres unmarked): the “hERG current change (%, negative = inhibition) at 10uM” value was 20.7%. As for `COc1ccccc1NC(=O)CN1CCN(C2c3ccccc3-c3ccccc32)CC1`, the “hERG current change (%, negative = inhibition) at 10uM” value was 2.41%. In the case of `O=C(Nc1ccccc1F)c1cccc(C(=O)Nc2ccccc2F)c1`, the “hERG current change (%, negative = inhibition) at 10uM” value is reported as 1.08%. On to `O=C(N/C(=C/c1ccco1)C(=O)N1CCCCC1)c1cccs1`, for which the “hERG current change (%, negative = inhibition) at 10uM” value is listed as -17.4%.

Consider `Cc1cccc(OCC(=O)Nc2ccc3c(C)cc(=O)oc3c2)c1`, for which the “hERG current change (%, negative = inhibition) at 10uM” value is reported as 1.59%.

With `C=CCn1c(SCC(=O)Nc2ccc(F)cc2F)nc2c([nH]c3ccccc32)c1=O`, the “hERG current change (%, negative = inhibition) at 10uM” value is given as -3.79%.

Take `CN(C(=O)COC(=O)CNC(=O)C1CCCCC1)c1ccccc1`: the “hERG current change (%, negative = inhibition) at 10uM” value is listed as -1.31%. For `C=CCSc1nc2c(c(-c3ccsc3)c1C#N)CN(C)CC2` the value was -65.2%.

For the molecule `Cc1csc(=O)n1CCC(=O)OCC(=O)N(CC(C)C)c1c(N)n(Cc2ccccc2)c(=O)[nH]c1=O`, the “hERG current change (%, negative = inhibition) at 10uM” value was determined as 0.214%. For `CCN(CC(=O)Nc1c(F)cccc1F)C(=O)CCc1nc2cc(S(=O)(=O)N3CCOCC3)ccc2n1C` the value was 14.1%; for `CC/C(=N\NC(N)=O)c1c(O)[nH]c(=O)[nH]c1=O`, 20.1%; for `O=C(Cn1cnc2c(cnn2-c2ccccc2)c1=O)N1CCCc2ccccc21`, -25.1%. To `CCc1ccc(OCC(=O)NNC(=S)NC(=O)C2CC2)c(Br)c1` belongs 7.59%; to `Brc1ccc(CNCc2cccs2)cc1`, -55.1%; to `CN(Cc1ccccc1)c1nc(N)c([N+](=O)[O-])c(NCc2ccccc2)n1`, 10%. For the molecule `O=c1c(-c2ccnn2-c2ccc(F)cc2)cnc2n1CCS2`, the “hERG current change (%, negative = inhibition) at 10uM” value was 19.9%. For the molecule `CC1CN(C(=S)SCC(=O)c2ccc([N+](=O)[O-])cc2)CC(C)O1` (centres unmarked), the “hERG current change (%, negative = inhibition) at 10uM” value is reported as -7.38%. To `Cc1ccc(S(=O)(=O)N2CCC(C(=O)OCc3ccccc3)CC2)cc1C` belongs 5.96%; to `CCOc1ccc(N(CC(=O)Nc2ccccc2OC)S(C)(=O)=O)cc1`, -19.1%. For `Fc1ccccc1NC(=S)N1CCC(c2ccccc2)C1` (centres unmarked) the value was 13.8%; for `CCn1c2ccccc2c2cc(NC(=O)COc3ccccc3)ccc21`, 5.64%; for `CCc1nnc(NC(=O)CSc2nc(-c3ccccc3)nc3ccccc23)s1`, 16.3%. For `O=C(NC(=S)N1CCN(Cc2ccccc2)CC1)c1cccnc1` the value was 14.2%; for `CCC(=O)NCc1csc(-c2cccs2)n1`, 8.79%; for `O=C(NCc1cccc(F)c1)C1CCN(S(=O)(=O)Cc2ccccc2)CC1`, 7.89%. In the case of `O=C(NC(=O)c1ccccc1Cl)Nc1ccc(-c2cnco2)cc1`, the “hERG current change (%, negative = inhibition) at 10uM” value stood at 14.4%. In the case of `COC(=O)Cn1c(=NC(=O)c2cc(OC)c(OC)c(OC)c2)sc2cc(OC)ccc21`, the “hERG current change (%, negative = inhibition) at 10uM” value is 1.18%. Regarding `Cc1ccc(-n2c3c(cc(C(=O)NCc4ccco4)c2=O)C(=O)CCC3)cc1`, the “hERG current change (%, negative = inhibition) at 10uM” value is given as -53.8%. To `CCc1ccc(C(=O)NCc2cnn(C)c2)s1` belongs 6.63%. As to `OC(c1ccccc1)C1CN(Cc2ccccc2)CCC1(O)c1ccccc1` (centres unmarked), the “hERG current change (%, negative = inhibition) at 10uM” value is given as -21.1%. To `CN1C(=O)c2ccc(C(=O)Nc3ccc(Br)cn3)cc2C1=O` belongs 7.17%; to `COc1ccc(Cl)cc1NC(=O)CC1CCCC1`, 13.3%. For `Cl.O=C(NCCCn1ccnc1)c1ccc(N2CCCCCC2)c([N+](=O)[O-])c1` the value was -64%; for `CN(C)C(=O)CSCc1c(Cl)cccc1Cl`, -9.95%; for `O=C(Cn1ncc2c3ccccc3n(Cc3ccc(Cl)cc3)c2c1=O)NCCCN1CCCC1=O`, -34.5%.

`CCCC(C)C(=O)N(Cc1ccccc1)c1ccccn1` (centres unmarked): the “hERG current change (%, negative = inhibition) at 10uM” value was determined as 5.79%. To `CC(C)(C)C(=O)O/N=C1\CCS(=O)(=O)c2sccc21` belongs -0.401%; to `COc1ccccc1CCC(=O)OCC(=O)Nc1ccc(C)c(S(=O)(=O)N2CCCCC2)c1`, 0.989%; to `CCCCc1c(C)nc2cc(-c3ccco3)[nH]n2c1=O`, -8.36%.

Consider `COC(=O)c1cc(Nc2cc(C)c3ccc(O)cc3n2)cc(C(=O)OC)c1`, for which the “hERG current change (%, negative = inhibition) at 10uM” value is 6.58%. Turning to `COc1ccc(/C=C2/SC(=O)N(CC(=O)Nc3cc(C)on3)C2=O)cc1OC`, the “hERG current change (%, negative = inhibition) at 10uM” value amounted to 2.84%.

As to `O=C1CC(NCc2ccncc2)C(=O)N1c1ccccc1` (centres unmarked), the “hERG current change (%, negative = inhibition) at 10uM” value is 4.07%. For `Cc1ccc(C(=O)NCCNC(=O)c2ccco2)cc1C` the value was 26.9%; for `COC(=O)c1ccc(CSc2nnnn2C)o1`, 23.2%.

Take `O=C(Nc1nccs1)c1cc(-c2ccccc2)nc2ccccc12`: the “hERG current change (%, negative = inhibition) at 10uM” value was found to be 8.65%.
